Laboratory results: PubChem BioAssay AID1508624 (National Center for Advancing Translational Sciences (NCATS), 2021)
Out of some 48,000 compounds screened, about 120 (0.25%) were called active. Not shown: some 4% with an inconclusive outcome. Calls follow the shape of the dose curve; as a rule, active = well fitted activation curve with a large enough effect; inconclusive = small, poorly fitted or top-dose-only effect, or another doubt; inactive = no such curve, though single readings can be large or run the other way. This is one part of the list.

Experiment: Primary qHTS for Identification of Small Molecule Activators of Huntingtin-Antisense Promoter Activity; also: nearly all actives have a fitted effect of over 55% in size
Settings: HEK293 HTT-AS promoter firefly luciferase reporter (activity 0% = vehicle and -100% = no light), 24 h; series mostly up to 57.5 µM; activity change, positive = activation: at the top concentration
How it was run: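 HEK293 Fluc reporter, 2,500 cells/well, 24 h pre-culture; cpds up to 57.5 uM final, 24 h 37 degrees C; Dual-Glo, 10 min RT; normalized vehicle = 0%, zero RLU = -100%.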

Activity change, positive = activation, inactive:
COc1cccc(C(=O)Nc2ccc(-n3nncc3-c3ccccc3)cc2)c1 -3.16%
Cc1cc(C)cc(-n2c(C)nc3cc(C(=O)NCc4ccccc4Cl)ccc32)c1 -11.7%
Cc1cccc(C(=O)Nc2ccc(OCc3cc(=O)n4ccsc4n3)cc2)c1 -1.04%
CCN(CC)S(=O)(=O)c1ccc2c(c1)N(CC(=O)N1CCN(c3ccc(Cl)cc3)CC1)C(=O)CO2 -9.6%
O=C(NC1CCCCCC1)C1c2ccccc2C(=O)N1Cc1ccccc1Cl (centres undefined) -5.97%
O=C(O)[C@@H]1[C@H]2C[C@H]3c4[nH]c5ccccc5c4CCN3C[C@@H]2CC[C@@H]1O -3.65%
O=C(Cn1ccc2cc(S(=O)(=O)N3CCCCCC3)ccc21)NCCc1ccc(Cl)cc1 -44.4%
CCN1CCN(C(=O)c2ccc3c(c2)N(Cc2ccccc2F)C(=O)c2ccccc2S3=O)CC1 (centres undefined) -9.85%
Cc1ccc(-n2c3c(cc(C(=O)Nc4cccc(Cl)c4)c2=O)C(=O)CC(C)(C)C3)cc1 -3.21%
Cc1ccc(Cl)cc1N1CCN(C(=O)CCCCCn2c(=O)[nH]c3ccccc3c2=O)CC1 -2.22%
CCOc1ccccc1-c1nc(SCC(=O)c2ccc(OC)c(Br)c2)n[nH]1 -9.08%
CCc1ccc(NC(=O)C2CCCN(S(=O)(=O)c3c(C)noc3/C=C/N(C)C)C2)cc1 (centres undefined) -21.9%
CC(C)OC(=O)c1cccnc1SCC(=O)Nc1ccc(C(F)(F)F)cc1Cl 10.8%
CC(=O)c1cccc(NC(=O)C(C)n2c(=O)cc(-c3ccccc3)c3c(C)nn(C)c32)c1 (centres undefined) -7.59%
COc1cccc(CNC(=O)c2ccc(NC(=O)N3CCCCc4ccccc43)cc2)c1OC -6.15%
CCOc1ccc(-c2cc(-c3nc(-c4ccc(C)cc4)no3)[nH]n2)cc1 -0.986%
CCN1C(=O)c2ccccc2S(=O)(=O)c2ccc(C(=O)NCc3ccccc3Cl)cc21 -19%
O=C(O)CCCCCC(=O)NN=C1CCCC1 -8.69%
COC(=O)CSc1ncc2c(n1)-c1ccccc1N(Cc1cccc(F)c1)S2(=O)=O 19.6%
CCOC(=O)C1CCN(C(=O)CSc2n[nH]c(-c3ccc(F)cc3)n2)CC1 -13%
COc1cccc(CNC(=O)c2c(C)oc3nc(C)nc(N4CCOCC4)c23)c1 3.12%
O=C(Cn1c(=O)oc2cc(S(=O)(=O)N3CCCC3)ccc21)NCc1ccc(F)cc1 -30.9%
CCc1cccc(C)c1NS(=O)(=O)c1c(C)nc2sccn2c1=O -11.3%
CC1(C)[C@H]2CC[C@]3(C)[C@@H](C(=O)C=C4[C@@H]5C[C@@](C)(C(=O)O)CC[C@]5(C)CC[C@]43C)[C@@]2(C)CC[C@@H]1O -7.39%
Cc1cc(C(=O)C(=O)Nc2nnc(C(C)C)s2)c(C)n1-c1ccccc1 -86.1%
CC(C)CCOc1ccccc1Cn1c(=O)sc2ccccc21 -7.58%
O=C(NCCCN1CCOCC1)c1ccc(Cl)cc1 4.15%
Cc1ccccc1NS(=O)(=O)c1ccc2[nH]c3c(c2c1)CCCCC3 -38.2%
CCOC(=O)c1cc(-c2ccccc2)n(CCC(=O)Nc2nc3c(C)cccc3s2)c1C -30.1%
CCOc1ccccc1CNC(=O)CCn1ccc2cc(S(=O)(=O)N3CCCCC3)ccc21 -13.2%
CCc1ccc(-n2c(=O)c3c(C)c(C(=O)N(C)C)sc3n(Cc3ccccc3F)c2=O)cc1 -5.13%
Clc1ccc(C2(c3ccc(-c4cn[nH]c4)cc3)CCNCC2)cc1 -33.5%
Cn1c(=O)c2sccc2n2c(CCCC(=O)Nc3ccc(Oc4ccc(Cl)cc4)cc3)nnc12 -27.4%
CC(=O)N1c2c(cc(Br)cc2S(=O)(=O)N2CCN(c3ccccc3)CC2)CC1C (centres undefined) -49.6%
Cc1ccc(-c2cc3c(N4CCN(c5cc(C)ccc5C)CC4)nccn3n2)cc1 -25.5%
O=c1c2sccc2n(Cc2cc(=O)n3ccccc3n2)c(=O)n1-c1cccc(C(F)(F)F)c1 -14.5%
Cc1ccc2oc(-c3cccc(NC(=O)c4sc5c([N+](=O)[O-])cccc5c4Cl)c3)nc2c1 16.9%
Cc1cnc(=O)[nH]c1SCC(=O)Nc1nc2ccccc2s1 23.5%
Cc1ccc(-c2nnc(SCC(=O)NCc3ccccc3)nc2-c2ccc(C)cc2)cc1 -38.4%
COc1ccccc1N1CCN(C(=O)c2cnc(N3CCCCC3)c3ccccc23)CC1 -39.5%
CNS(=O)(=O)c1cc(-c2nnc(Nc3cc(C)ccc3C)c3ccccc23)ccc1C -54.9%
CCOC(=O)c1cnc2ccccc2c1Nc1cccc(OC)c1 -31.8%
Cc1cc2c(cc3c(SCC(=O)Nc4cccc(Cl)c4C)nnc(C)n32)o1 -12.9%
CCc1ccc(C(=O)NC(Cc2c[nH]c3ccccc23)C(=O)OCC(=O)c2ccc(Br)cc2)cc1 (centres undefined) -5.59%
COc1ccc(/C=C/C(=O)Nc2ccc(Cl)c(Cl)c2)cc1 24.3%
Cc1cc(-c2ccc(C)c(S(=O)(=O)Nc3cccc(C#N)c3)c2)on1 -41.8%
CCOc1ccc(CCNC(=O)c2c(C)oc3ncn(C)c(=O)c23)cc1 2.92%
O=C(COc1ccc(F)cc1)NCCc1nc2ccccc2[nH]1 -16%
Cc1ccc(Cn2ccnc2SCC(=O)Nc2ccccc2C(F)(F)F)cc1 -4.6%
COc1ccc(OC)c(NC(=O)CCn2cccn2)c1 -1.23%
CCCn1c2ccccc2c2cnn(CC(=O)NCc3ccc(OC)cc3)c(=O)c21 -7.07%
COc1ccccc1CNC(=O)C1CCN(S(=O)(=O)c2ccc3[nH]c(=O)ccc3c2)CC1 -2.04%
CCOC(=O)c1ccccc1NC(=O)NCc1cccn1Cc1ccc(F)cc1 -21.4%
CCc1nn(CC(=O)N2CCN(c3cccc(Cl)c3)CC2)c(=O)c2cc3sccc3n12 -8.41%
CCOc1ccc(NC(=O)Cn2c(=O)n(Cc3ccco3)c(=O)c3ccc(C(=O)NC4CCCC4)cc32)cc1 -17.3%
O=C(CCC1CCN(Cc2ccccc2)CC1)c1ccc2c(c1)NCCCC2 -24.4%
O=C1CC(c2cccc(Cl)c2Cl)c2cc3c(cc2N1)OCCO3 (centres undefined) -37.2%
COc1cc(OC)c(NC(=O)Cn2c(SCc3ccccc3F)nc3cccnc32)cc1Cl -3.95%
Cc1ccccc1N=Nc1ccc(N=Nc2c(O)ccc3ccccc23)c(C)c1 18.1%
CCOc1ccc(NC(=O)Cn2nc(SC)c(S(=O)(=O)c3ccccc3)c2N)cc1 -23.3%
CC(=O)c1ccc(N2CCN(c3nc4ccccc4c4nc(-c5cccc(C)c5)nn34)CC2)cc1 5.76%
COc1ccc(NC(=O)CN2CCN(CC(=O)Nc3ccccc3F)CC2)cc1OC -3.33%
Cc1oc(-c2ccccc2Cl)nc1CS(=O)CC(=O)NCc1ccccc1Cl (centres undefined) -9.09%
CCOC(=O)c1ccc(NC(=O)COc2cccc3c(=O)n(C)ccc23)cc1 -45.2%
O=S(=O)(c1ccc(F)cc1)N(Cc1nc(-c2ccccc2)no1)C1CCCCC1 -22.7%
Cc1cc(Cl)ccc1OCC(=O)N1CCC(c2nc3ccccc3o2)CC1 -27.6%
O=C(COc1ccc(F)cc1)Nc1ccc(C(=O)OCc2cc(=O)n3nc(C4CC4)sc3n2)cc1 3.4%
Cc1ccc(CN(Cc2cccn2-c2nnc(N3CCCC3=O)s2)C(=O)Nc2ccc(F)cc2)cc1 -5.82%
CCOc1ccc(NC(=O)c2sc3nc4c(cc3c2N)CN(Cc2ccccc2)CC4)cc1 -14.8%
Cc1ccc(-n2nc(C(=O)Nc3ccc(Br)cc3C)c(=O)n(C)c2=O)cc1 -12.6%
COc1ccccc1CNC(=O)CSCc1nc(-c2ccc(OC)c(OC)c2)oc1C -19.3%
COC(=O)c1ccc(NC(=O)C(=O)NCCc2csc(-c3ccc(C(F)(F)F)cc3)n2)cc1 1.63%
O=C(Nc1cccc(C(=O)OCc2cc(=O)n3c4c(sc3n2)CCCC4)c1)c1cccc(Cl)c1 2.95%
COc1cccc(NC(=O)Cn2nnc(C(=O)NCCc3ccccc3)c2N)c1 -3.24%
Cc1nc(-c2ccc(S(=O)(=O)N(Cc3ccccc3)C(C)C)cc2)co1 -12.9%
COc1ccc(CCn2c(=O)c3cccnc3n(CC(=O)Nc3ccc(C)cc3C)c2=O)cc1OC -7.73%
Cn1cc(C(=O)Nc2ccc(C#N)cc2)c2ccccc2c1=O -29.9%
O=C(CSc1nc2c([nH]c3ccccc32)c(=O)n1-c1ccc(F)cc1)NCc1ccc(F)cc1 -35.8%
CCOc1ccc(CCNC(=O)c2ccc3c(c2)nc2n3CCOC2)cc1OCC -16.4%
CC(C)OCCCNC(=O)CCCn1c(SCC(N)=O)nc2c(sc3ccccc32)c1=O -4.34%
Cc1ccc(Cl)cc1NC(=O)C1CCN(C(=O)c2cnn(-c3ccccc3)c2-n2cccc2)CC1 -37.2%
O=C(CCS(=O)(=O)c1nc(-c2cccs2)cc(C(F)(F)F)n1)Nc1ccc(F)c(Cl)c1 -57.1%
Cc1ccc(NC(=O)C2CCN(S(=O)(=O)c3ccc4c(c3)CCCN4C(=O)C3CCC3)CC2)cc1 -19.3%
O=C(NCCCN1CCCCC1)c1[nH]c2ccccc2c1Sc1ccc(Cl)cc1 -21.1%
COC1CCC(C(=O)c2ccc3nc4c(cc3c2)CCCO4)CC1 (centres undefined) -12.9%
Cc1cc(C)nc(NS(=O)(=O)c2ccc(NC(=O)c3nc(SC(C)C)ncc3Cl)cc2)n1 0%
Cc1c(Cl)cccc1-n1ncc(C(=O)N2CCC(C)CC2)c1C1CCN(C(=O)OC(C)(C)C)CC1 12.2%
CN(C(=O)C1CCN(c2ncnc3c2nc2n3CCCCC2)CC1)c1ccccc1F -8.95%
CCN(CC)c1ccc(NC(=O)CN2CCN(S(=O)(=O)c3cc(Cl)ccc3OC)CC2)cc1 -7.9%
COc1ccc(NC(=O)CSc2nc(-c3ccccc3)[nH]c2-c2ccccc2)cc1OC -16.6%
CC(C)C(NS(=O)(=O)c1ccc2c(c1)oc(=O)n2C)C(=O)NCc1ccccc1 (centres undefined) 15.7%
CC(=O)c1ccc(N2CCN(C(=O)c3cc4c(s3)-c3ccccc3OC4)CC2)cc1 -10.9%
Cc1oc(-c2ccc(C(=O)NCc3ccccc3F)cc2)nc1COc1ccccc1 -30.7%
COc1ccccc1CCNC(=O)C(=O)NCC(c1ccco1)S(=O)(=O)c1ccccc1 (centres undefined) -28%
